Results as given in article PMC8614738.
These are yes or no findings as the source states them, for the method shown. Some binding calls cover weakened binding; strength is not graded here.

Legend:
Test in all cases: SEC; analytical gel filtration of double mixtures, HiLoad 16/600 Superdex 200, 0.1 mM of each protein pre-incubated at 35 °C for 30 min; 50 mM Tris-HCl, 50 mM NaCl, 1 mM MgSO4, 2 mM DTT, pH 7.4, about 22 °C; fractions on SDS-PAGE; both purified
[1] = target: oligomeric EF-Tu (^OligoEF-Tu), unfolded (UniProt P0CE47)
[2] = target: elongation factor thermo-unstable (EF-Tu), native monomeric (UniProt P0CE47)
[3] = target: T1, heat shock protein 33 (Hsp33), reduced zinc-bound (UniProt P0A6Y5)
T1 sequence: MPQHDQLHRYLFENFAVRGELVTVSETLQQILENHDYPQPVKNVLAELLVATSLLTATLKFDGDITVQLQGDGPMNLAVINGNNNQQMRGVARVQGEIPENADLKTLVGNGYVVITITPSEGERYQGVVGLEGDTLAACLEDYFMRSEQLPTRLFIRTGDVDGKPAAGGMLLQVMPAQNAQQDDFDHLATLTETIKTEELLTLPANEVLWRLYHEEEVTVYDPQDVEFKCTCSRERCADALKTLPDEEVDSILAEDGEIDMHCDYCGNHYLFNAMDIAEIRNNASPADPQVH

binding [1]	binding [2]	Substance	binding [3]
binds		oligomeric EF-Tu (^OligoEF-Tu), unfolded (from UniProt P0CE47 1-394)	
	binds	elongation factor thermo-stable (EF-Ts) (from UniProt P0A6P1 1-283)	no binding (tested: 0.1 mM of each protein)
		trigger factor (TF) (from UniProt P0A850 1-432)	no binding (tested: 0.1 mM of each protein)
